Measured values published in the supplement of paper PMC11417369.
± gives the standard deviation of the averaged measurements. This is one part of the list.

Each sequence was assayed on PfAP2-LT AP2 domain (GST-tagged) (assay: gcPBM binding intensity (ln(normalized median fluorescence intensity)); higher = stronger DNA binding).
Method in brief: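 GST-tagged P. falciparum DNA-binding domains, expressed in E. coli (about 25 μg on average), were applied for 1 h to an Agilent 4 × 180k array of primer-extended double-stranded 36-bp intergenic genomic probes plus negative controls. The binding buffer was 1× PBS with 1% milk, 0.2 mg/ml BSA, 0.5% salmon testes DNA and 0.03% Triton X-100. Bound protein was detected with Alexa488 anti-GST antibody and scanned at 488 nm. Binding intensity is the highest Masliner-normalised natural-log median intensity across replicate spots of either probe orientation.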

Row | Sequence | gcPBM binding intensity (ln)
1 | AAAAATTATGGACACACACACATATATATATATATT [CACACA_site4717] | 9.8 ± 0.11
2 | AATAAAATAAAATACACACATACATACATACAAATG [CACACA_site2438] | 9.52 ± 0.35
3 | GGTATACGCAAGTATACACACATATATATATATATA [CACACA_site3240] | 10.01 ± 0.042
4 | TAATTTATGACACGCGCACACATATATATATAGTAA [CACACA_site4249] | 9.2 ± 0.28
5 | ATATATATATTTGTATGTACATATATATATTCGTAT [XGTACX_site1640] | 9.06 ± 0.38
6 | ACCCATAAAAAGGATACACACACACCCACCCATATA [CACACA_site8205] | 10.3 ± 0.29
7 | TTTCCTTATTAAAACACACAAATACATTATTTAATC [CACACA_site7080] | 8.6 ± 0.52
8 | ACTGTAAAAGGATTTACACACATATTTACATTTACA [CACACA_site519] | 9.06 ± 0.35
9 | ATGCATATAACTACGTGTACAAATATACACAAATAC [XGTACX_site8811] | 9.18 ± 0.42
10 | TACCAATGCATAACGGTGCAAAAAAATAAGGAATAA | 8.91 ± 0.61
11 | TAAAACAACAAAGAAAATGAAAAAGTAAAAACATAT [CACACA_negctrl_site1049] | 8.9 ± 0.55
12 | ATTTCATAAATTAAACGTACATAATACACACACATG [XGTACX_site4155] | 9.49 ± 0.33
13 | GTACGATAAAAAATTGGACAAAAAAAAAAAAAAAAT [XGTACX_negctrl_site158] | 8.79 ± 0.53
14 | TTTTGTTATTTTTTAGTGCATATAAAGGTTGTTAAG | 8.45 ± 0.4
15 | TTTTGCAATAATGTTGCACACTAAATAGTCATCTAT [CACACA_site4304] | 8.91 ± 0.32
16 | ACATTTTTTTCATATCGTACATATTATAATATTTTC [XGTACX_site6524] | 8.94 ± 0.4
17 | ACAAGTCAGGCAAAAACATGCATTATTTGAACATTA [TGCATGCA_site864] | 8.9 ± 0.46
18 | AAAAAAAAAAAAGGAGGTACACAATTTTATATATGC [XGTACX_site5296] | 8.66 ± 0.49
19 | GAGCATTACCCATATACACACATATATATAAACCTA [CACACA_site2737] | 9.18 ± 0.37
20 | CTATCATATTTATGCACACAAAAATAATTAATTCGT [CACACA_site2614] | 8.96 ± 0.36
21 | TATTTTGAGAATAAATGTACGAATTTTATATTTAAA [XGTACX_site1336] | 8.07 ± 0.42
22 | ACCTGTTCATATGATCGTACACGTCAGTTTATATGA [XGTACX_site3869] | 9.15 ± 0.37
23 | ATATAATTATTGATATGTACATATTTGTTCTAGTTT [XGTACX_site3012] | 9.01 ± 0.45

Row | Sequence | gcPBM binding intensity (ln)
24 | ATTCAAATATTAAAAAGTACAAAAAAAAAACAAAAA [XGTACX_site1174] | 8.63 ± 0.5
25 | ACATTAAAATATGATTGTACATTTTATTATATTATA [XGTACX_site912] | 8.68 ± 0.41
26 | ACAACACTATATTACACATGCATTAAGAGAGTGAAC [TGCATGCA_site124] | 9.12 ± 0.36
27 | ATAATTATTTTAGAAACACACAAATTAGAAAAAACA [CACACA_site3636] | 8.67 ± 0.55
28 | TAAAATAAAAATTAAAGTACATATGTATATATATAT [XGTACX_site3984] | 9.11 ± 0.35
29 | AATCCTTACGGACACACACACACGAATAAATAAAAA [CACACA_site4422] | 9.68 ± 0.43
30 | GAGTATTCAAGTATTAGTACATATTATATAATAAAT [XGTACX_site7630] | 8.72 ± 0.49
31 | TACAAAATGGGGAACACACACATATATAAATAAATA [CACACA_site7751] | 9.6 ± 0.63
32 | TTTTTTTCTAATTATGCACACATATCAAAATATTCA [CACACA_site8886] | 8.84 ± 0.38
33 | ATATTTATTATATAATGTACAAAAAAAAAAAAAAAA [XGTACX_site629] | 8.44 ± 0.32
34 | AATAAATAGATATATACACACATATATCTATAATAT [CACACA_site6557] | 9.02 ± 0.3
35 | AAATATAAAAGTATATGTACATATATATATATATAT [XGTACX_site7446] | 9.85 ± 0.3
36 | TATATAATGGTAAAAACACACAAATATGAAGATGTT [CACACA_site722] | 9.05 ± 0.4
37 | CGTGTGTCCCCCTTAATCATCCAATCGTTCATTTTG [CACACA_negctrl_site1008] | 9.09 ± 0.28
38 | AGAGGATCATAGTTATGTACACATATTTAACATAAA [XGTACX_site7232] | 8.71 ± 0.45
39 | GACAATAAAAAGAAAAGTACATATATAAATTAACCA [XGTACX_site7858] | 8.83 ± 0.48
40 | TCTTCATTTTTATGTGCATGTAAAATTTTTTTTTTT [TGCATGCA_site963] | 8.71 ± 0.49
41 | TTTTTATAAAAATTATTAAAAAAATTATTTATAGCT [CACACA_negctrl_site265] | 8.07 ± 0.45
42 | TTTTTTTTCAATCTCTATATATTAAGGTTTATATTT [XGTACX_negctrl_site397] | 8.46 ± 0.49
43 | TAGCGCATAAAAAAAAAAAAATATATACTAATAAAT [GTGCAC_negctrl_site276] | 8.54 ± 0.54
44 | AAATATATTATTATCTTATCAATTAAAAGAATAAAC [CACACA_negctrl_site779] | 8.38 ± 0.43
45 | TTACTTAAATATAAGTGTCCTCAAAAAAAAAAAAAA [XGTACX_site460] | 8.2 ± 0.45
46 | AATATAAGTTTATTAGTGCACAGATAAATATATATT [GTGCAC_site9784] | 8.86 ± 0.42

Row | Sequence | gcPBM binding intensity (ln)
47 | ATGTATGTTTTTTTTTTATTGTTCAAAAAGTTGAAG [CACACA_negctrl_site1276] | 8.52 ± 0.37
48 | ATTTTTTATATTAATTGTACATTGTATATATATATA [XGTACX_site8702] | 8.8 ± 0.35
49 | TTATATATATGTGTATGTACATATATATATATATAT [XGTACX_site1141] | 9.52 ± 0.22
50 | AAAAGAATAATAATTTATGTATATTAATTAAAGAAT [XGTACX_negctrl_site402] | 8.52 ± 0.53
51 | TATCATATATTATATGCACACATGTTTTTCAAGAAT [CACACA_site1892] | 8.95 ± 0.31
52 | TATATAATATTCTACACACCAACAACAAACATATAT [CACACA_site567] | 9.26 ± 0.33
53 | ATATTCTGATTTTAGATGCACTTCGTTAACAAAATA [GTGCAC_site9958] | 8.49 ± 0.35
54 | ATATATATATTTATATGTACATAATATAAAATTTCT [XGTACX_site3720] | 8.62 ± 0.45
55 | AATGAATATATATAAATATATATATATATATATATA [CACACA_negctrl_site1494] | 9.39 ± 0.17
56 | ATAAATCTACACCGCACACAAAAACAACAAATATTA [CACACA_site5396] | 9.34 ± 0.4
57 | ATGTTATTACATAATTGTACATTTTGAGCAATTAAG [XGTACX_site4640] | 8.52 ± 0.35
58 | ATATTTGTATAAATTGCACACTTTATTTTTTTTAAG [CACACA_site1558] | 8.79 ± 0.48
59 | AAACGTAACATATATATATATATATATAAGATATAT [CACACA_negctrl_site126] | 9.63 ± 0.2
60 | TTAGCTTTTTTTTAAACATGCAACTACTTGATCCAC [TGCATGCA_site1017] | 8.6 ± 0.55
61 | TTTTTTTTTTTTTCTTCACACACAGTACTACTATTT [CACACA_site8759] | 9.13 ± 0.5
62 | GGTATATGCATAAAGAGTACGTAACTTCTTTTTGTT [XGTACX_site6344] | 8.91 ± 0.44
63 | ATAAGATGATTAATTACACACTTTATAGGATATTTA [CACACA_site1711] | 8.61 ± 0.38
64 | AAATGTGTAAATATAATTAGTTTCACAAAACAAATA [GTGCAC_negctrl_site543] | 8.73 ± 0.51
65 | TATTTATTATTATGTACACACTATATTAAAACATAA [CACACA_site4549] | 8.56 ± 0.42
66 | TATGTGAATCCTAAGTGTACACATCTTACATATATA [XGTACX_site2506] | 9.01 ± 0.38
67 | AGTATACGCAGACACACACACACATATATATATATA [CACACA_site1735] | 10.22 ± 0.042
68 | TTATATTTATAAAGGTGTACCTTAAAATGATTTTAC [XGTACX_site3774] | 8.32 ± 0.47
69 | AAAATTAAATAAAAATGTACAGAAATATTATATGAA [XGTACX_site5695] | 8.69 ± 0.55

Row | Sequence | gcPBM binding intensity (ln)
70 | ATATATTATATTAATTGTACATAAAAAAGAGAAAAA [XGTACX_site3366] | 8.6 ± 0.35
71 | AGAAAAATTACAAAATGTACATAATGTGTTATTAAT [XGTACX_site7877] | 8.82 ± 0.52
72 | ATGTATAAACAAAAGGGTACATATATATATATATAT [XGTACX_site2087] | 9.88 ± 0.18
73 | AATATATAAATCAATAGTACATATATATATATATAT [XGTACX_site3898] | 9.535 ± 0.078
74 | AATAAAAAACATGAAAGTACTTTAAAAAAGGTAATA [XGTACX_site1897] | 8.97 ± 0.64
75 | ATTAAGTACTAAAAAGTGCAGTTCGGTACTGTGCTT [GTGCAC_site9755] | 8.85 ± 0.39
76 | ATTAAATATGAGGGAACACACACATGATATATAAAT [CACACA_site8755] | 9.41 ± 0.41
77 | TTATATAAAGAATGTACACACAGAAATGCACCCACA [CACACA_site2282] | 9.39 ± 0.2
78 | CCAAAAAATATATGTAGTACTACATTATTAAATATG [XGTACX_site5128] | 8.71 ± 0.35
79 | AAAAAAAACACGCGCACACACACACCCACAGACACA [CACACA_site5253] | 10.2 ± 0.14
80 | TATTTTTTAAAAAATTATAAATAAAATTATATTACG [CACACA_negctrl_site324] | 8.1 ± 0.39
81 | TATATATATAAATACACACACACACCCCAAAGCGTA [CACACA_site4211] | 9.86 ± 0.24
82 | TATAATATATTCACTCGTACATATTTAATAATATCT [XGTACX_site6209] | 8.65 ± 0.52
83 | ACAGTATATTAAAAAATACACACGTATTATATCTAC [CACACA_site2640] | 8.95 ± 0.38
84 | ATACCTGTTGTGTTACGTACATAATTTTAATGTTTG [XGTACX_site8181] | 9.04 ± 0.39
85 | AAATTCAATTTGCGCTGTACATGAAGATATAAATTT [XGTACX_site4844] | 8.85 ± 0.42
86 | ATAAATTTTTTATGAACACACAAATACCCACGCTCA [CACACA_site2659] | 9.04 ± 0.33
87 | TTTTAATTAAATAAATGTACTCATTCTATTATTTAT [XGTACX_site3032] | 8.54 ± 0.43
88 | TATTACACATATTATGTGCACATATATAATCAATAT | 8.94 ± 0.4
89 | ATTTTATTTTTGTGCACACTGATAAATTGAAAAGAG [CACACA_site2948] | 8.82 ± 0.4
